From the antibiotic and cytotoxicity screens of Wong et al. (2023)
Some of the results follow.

The molecules below were run on HepG2 (assay: cytotoxicity call (relative viability < 0.9)). Conditions: 10 µM.
For COc1oc(C(=O)NC2CCCCC2)c(-c2ccc(Cl)cc2)c1S(=O)(=O)c1ccccc1Cl, the cytotoxicity call was “inactive”.
Cc1ccc(S(=O)(=O)N(C)C[C@H]2Oc3ccc(NC(=O)c4ccncc4)cc3CC(=O)N([C@H](C)CO)C[C@H]2C)cc1 was tested, and the cytotoxicity call was “inactive”.
Cc1noc(C)c1S(=O)(=O)N(C)C[C@H]1Oc2ccc(NC(=O)Nc3ccccc3)cc2CC(=O)N([C@@H](C)CO)C[C@@H]1C was tested, and the cytotoxicity call was “inactive”.
For CNC(=O)C[C@H]1C[C@@H]2CN(S(=O)(=O)c3cccnc3)C[C@@H]2O1, the cytotoxicity call was “inactive”.
With CC1=NCCC2c3ccc(O)cc3NC12 (stereo not given) the cytotoxicity call was “active”.
In the case of C[C@H]1CCCCO[C@H](CN(C)C(=O)c2ccncc2)[C@@H](C)CN([C@@H](C)CO)C(=O)c2cc(NS(C)(=O)=O)ccc2O1, the cytotoxicity call is reported as “inactive”.
In the case of CCn1c(N)c(C(N)=O)sc1=S, the cytotoxicity call is reported as “inactive”.
In the case of C[C@@H]1CCCCO[C@@H](CN(C)CC2CC2)[C@@H](C)CN([C@H](C)CO)C(=O)c2cc(NS(=O)(=O)c3cn(C)cn3)ccc2O1, the cytotoxicity call is reported as “inactive”.
In the case of C[C@H]1CCCCO[C@H](CN(C)C(=O)Nc2ccccc2)[C@@H](C)CN([C@@H](C)CO)C(=O)c2cc(NC(=O)Nc3ccccc3)ccc2O1, the cytotoxicity call is reported as “inactive”.
For Cc1noc(C)c1NC(=O)N(C)C[C@H]1Oc2ccc(NC(=O)CCN3CCOCC3)cc2CC(=O)N([C@H](C)CO)C[C@@H]1C, the cytotoxicity call was “inactive”.
For COc1ccc(S(=O)(=O)N(C)C[C@@H]2Oc3ccc(NC(=O)NC(C)C)cc3C(=O)N([C@@H](C)CO)C[C@@H]2C)cc1, the cytotoxicity call was “inactive”.
COc1ccc(C#Cc2cnc3c(c2)C(=O)N([C@H](C)CO)C[C@H](C)[C@H](CN(C)S(=O)(=O)c2cccc(F)c2)O3)cc1OC was tested, and the cytotoxicity call was “inactive”.
C[C@H](CO)N1C[C@H](C)[C@@H](CN(C)C(=O)Cc2ccccc2)OCCCC[C@H](C)Oc2ccc(NC(=O)C3CCCCC3)cc2C1=O was tested, and the cytotoxicity call was “inactive”.
For Cc1ccc(S(=O)(=O)Nc2ccc3c(c2)CC(=O)N([C@@H](C)CO)C[C@@H](C)[C@@H](CN(C)S(=O)(=O)c2ccc(F)cc2)O3)cc1, the cytotoxicity call was “inactive”.
In the case of C[C@H](CO)N1C[C@H](C)[C@@H](CN(C)Cc2ccc(Oc3ccccc3)cc2)Oc2ccc(NC(=O)Cc3ccccc3)cc2CC1=O, the cytotoxicity call is reported as “inactive”.
In the case of O=C(C[C@@H]1CC[C@@H]2[C@H](COC[C@H](O)CN2C(=O)Nc2cccc(Cl)c2)O1)NCCCN1CCOCC1, the cytotoxicity call is reported as “inactive”.
In the case of FC(F)(F)C(Cl)Br (stereo not given), the cytotoxicity call is reported as “inactive”.
With COC(=O)[C@@H]1C[C@@H](C#N)N[C@@H]1c1ccccn1 the cytotoxicity call was “inactive”.
In the case of O=c1cc(-c2ccccc2)oc2ccc(O)cc12, the cytotoxicity call is reported as “inactive”.
CC(C)(N)c1cc(C(=O)N[C@@H]2CCc3ccc(Oc4ccnc5c4CCC(=O)N5)cc3C2)cc(C(F)(F)F)c1 was tested, and the cytotoxicity call was “active”.
For C[C@@H]1CN([C@H](C)CO)C(=O)c2cc(NS(=O)(=O)c3ccc(Cl)cc3)ccc2O[C@@H]1CN(C)S(C)(=O)=O, the cytotoxicity call was “inactive”.
In the case of Nc1nnnn1CC(=O)OCC(=O)Nc1ccccc1, the cytotoxicity call is reported as “inactive”.
For CO[C@H]1CN(C)C(=O)c2cc(NC(=O)C3CC3)ccc2OC[C@@H](C)N(C(=O)Cc2ccccn2)C[C@@H]1C, the cytotoxicity call was “inactive”.
In the case of CNc1cccc(CN)c1, the cytotoxicity call is reported as “inactive”.
For Cc1cc2c(s1)Nc1ccccc1N=C2N1CCN(C)CC1, the cytotoxicity call was “inactive”.
In the case of C[C@H](CO)N1C[C@H](C)[C@H](CN(C)C(=O)Nc2ccc3c(c2)OCO3)OCCCC[C@H](C)Oc2ccc(NC(=O)CCC(F)(F)F)cc2C1=O, the cytotoxicity call is reported as “inactive”.
For Cc1noc(C)c1NC(=O)N(C)C[C@@H]1Oc2ccc(NC(=O)Cn3cnnn3)cc2CC(=O)N([C@@H](C)CO)C[C@H]1C, the cytotoxicity call was “inactive”.
With CN1CCN(C(=O)C[C@@H]2CC[C@@H]3[C@H](COC[C@@H](O)CN3C(=O)Nc3ccc4c(c3)OCO4)O2)CC1 the cytotoxicity call was “inactive”.
For C[C@H]1CCC2=C(CCC[C@@]2(C)C(=O)O)[C@@]1(C)CCc1ccoc1, the cytotoxicity call was “inactive”.
With NC(=O)c1ncn(C2OC(CO)C(O)C2O)n1 (stereo not given) the cytotoxicity call was “inactive”.
In the case of COc1ccccc1C#Cc1ccc2c(c1)O[C@H](CN(C)Cc1cncnc1)[C@@H](C)CN([C@H](C)CO)S2(=O)=O, the cytotoxicity call is reported as “inactive”.
In the case of Cc1ccc(S(=O)(=O)N(C)C[C@@H]2OCCCC[C@H](C)Oc3ccc(NS(=O)(=O)c4ccc(F)cc4)cc3C(=O)N([C@H](C)CO)C[C@@H]2C)cc1, the cytotoxicity call is reported as “active”.
In the case of C[C@@H]1CN([C@@H](C)CO)C(=O)c2cc(NC(=O)C3CCCCC3)ccc2O[C@@H](C)CCCCO[C@@H]1CN(C)C(=O)Nc1cccc2ccccc12, the cytotoxicity call is reported as “active”.
COc1cc(N2CCC(N3CCN(C)CC3)CC2)ccc1Nc1ncc(Cl)c(Nc2ccccc2S(=O)(=O)C(C)C)n1 was tested, and the cytotoxicity call was “active”.
With C[C@@H]1CN([C@H](C)CO)C(=O)c2cccc(NC(=O)c3cnccn3)c2O[C@H]1CN(C)S(=O)(=O)c1cn(C)cn1 the cytotoxicity call was “inactive”.
O=C(C[C@H]1C[C@H]2c3cc(NC(=O)c4ccc5c(c4)OCO5)ccc3O[C@H]2[C@H](CO)O1)NCC(F)(F)F was tested, and the cytotoxicity call was “inactive”.
With COC(=O)[C@H](Cc1ccccc1)N1CC2=C[C@@H](C3CC3)n3c(=O)n(C)c(=O)n3[C@H]2[C@@H]1[C@@H](O)CCn1cc(COc2ccccc2/C=C(C)/C=C/C(=O)NO)nn1 the cytotoxicity call was “inactive”.
With C[C@H](CO)N1C[C@H](C)[C@H](CN(C)C(=O)C2CCCCC2)Oc2cc(Br)ccc2S1(=O)=O the cytotoxicity call was “inactive”.
For C[C@H]1CN([C@@H](C)CO)C(=O)c2cc(/C=C/c3ccccc3)cnc2O[C@@H]1CN(C)C(=O)CN1CCOCC1, the cytotoxicity call was “inactive”.
In the case of CC(C)NC(=O)N[C@@H]1C=C[C@H](CC(=O)NCCCN(C)C)O[C@@H]1CO, the cytotoxicity call is reported as “inactive”.
